This note sets out measurements from PubChem BioAssay (NCI).

Some test systems named below: DU-145 prostate; MDA-MB-231 breast; T-47D breast; OVCAR-3 ovarian.
Holding throughout (test): inhibition of tumour cell growth, NCI panel, 48 h

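Protocol summary: plate cells (96-well), add compound at 5 concentrations, incubate 48 h, interpolate endpoints linearly. GI50 marks 50% less growth.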 For part of its entries the source gives two or more results. They are shown here; other results are not. The source may hold further records. A record mostly stands for its own series of concentrations, which the source does not state; some values may only mark the edge of a range.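 The concentration for full growth arrest is given as TGI.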

On to `CCCC(=O)Nc1cc(/C=C/C(=O)N2C[C@H]3C[C@@]34C2=CC(=O)c2[nH]cc(C)c24)n(C)c1`, for which the TGI is < 2.5 nM and 1.91 µM in the assay with DU-145 prostate; 3.68 nM and 130 nM in the assay with MDA-MB-231 breast; 8.24 nM and 480 nM in the assay on T-47D breast.
With `O=[N+]([O-])c1ccc(NC(=S)N/N=C(\c2ccccc2)c2ccccn2)cc1`, the GI50 in the assay on OVCAR-3 ovarian is 8.11 nM and 1.43 µM.
